Measured values taken from paper PMC4472343.
Results are given in words; binding and its absence hold for the method and conditions named. Binding seen in cells or lysates may run through a third protein. Some entries that bind do so weakly or less than the wild type.

Protein sequences, listed by entry. Tags and fused reporters are not part of them. Lines headed by an entry give the natural chain unless they say otherwise; changes in a name come on top. Residues count along the entry.
UniProt P60615, residues 22-95: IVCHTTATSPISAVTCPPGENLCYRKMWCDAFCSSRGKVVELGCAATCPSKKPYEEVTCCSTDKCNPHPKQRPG
UniProt P49582, residues 23-502: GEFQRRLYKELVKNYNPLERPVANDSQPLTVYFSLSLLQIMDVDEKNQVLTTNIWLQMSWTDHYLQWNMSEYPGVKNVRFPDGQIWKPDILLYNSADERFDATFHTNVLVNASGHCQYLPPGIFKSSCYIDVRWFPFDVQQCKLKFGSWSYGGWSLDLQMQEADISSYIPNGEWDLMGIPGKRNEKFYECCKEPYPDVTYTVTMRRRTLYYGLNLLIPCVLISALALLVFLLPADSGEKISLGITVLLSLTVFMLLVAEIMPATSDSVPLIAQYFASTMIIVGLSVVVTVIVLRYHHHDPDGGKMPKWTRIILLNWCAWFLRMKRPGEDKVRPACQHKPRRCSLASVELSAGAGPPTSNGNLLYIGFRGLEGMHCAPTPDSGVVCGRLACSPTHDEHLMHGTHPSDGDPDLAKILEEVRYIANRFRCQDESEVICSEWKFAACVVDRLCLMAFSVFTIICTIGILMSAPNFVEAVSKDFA
UniProt P36544, residues 23-502: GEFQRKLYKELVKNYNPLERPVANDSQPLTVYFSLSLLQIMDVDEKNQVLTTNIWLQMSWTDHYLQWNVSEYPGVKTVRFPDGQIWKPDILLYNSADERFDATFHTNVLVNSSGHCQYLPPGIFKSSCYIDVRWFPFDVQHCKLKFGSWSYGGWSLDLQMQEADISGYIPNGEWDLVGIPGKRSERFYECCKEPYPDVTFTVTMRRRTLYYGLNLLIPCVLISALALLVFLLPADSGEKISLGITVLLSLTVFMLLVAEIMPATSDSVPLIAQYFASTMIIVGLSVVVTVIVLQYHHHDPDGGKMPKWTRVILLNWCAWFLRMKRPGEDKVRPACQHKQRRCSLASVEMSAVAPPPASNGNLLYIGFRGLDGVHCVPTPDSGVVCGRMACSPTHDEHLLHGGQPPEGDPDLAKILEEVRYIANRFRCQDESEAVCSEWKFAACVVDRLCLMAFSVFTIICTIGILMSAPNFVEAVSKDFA
UniProt P43681, residues 27-627: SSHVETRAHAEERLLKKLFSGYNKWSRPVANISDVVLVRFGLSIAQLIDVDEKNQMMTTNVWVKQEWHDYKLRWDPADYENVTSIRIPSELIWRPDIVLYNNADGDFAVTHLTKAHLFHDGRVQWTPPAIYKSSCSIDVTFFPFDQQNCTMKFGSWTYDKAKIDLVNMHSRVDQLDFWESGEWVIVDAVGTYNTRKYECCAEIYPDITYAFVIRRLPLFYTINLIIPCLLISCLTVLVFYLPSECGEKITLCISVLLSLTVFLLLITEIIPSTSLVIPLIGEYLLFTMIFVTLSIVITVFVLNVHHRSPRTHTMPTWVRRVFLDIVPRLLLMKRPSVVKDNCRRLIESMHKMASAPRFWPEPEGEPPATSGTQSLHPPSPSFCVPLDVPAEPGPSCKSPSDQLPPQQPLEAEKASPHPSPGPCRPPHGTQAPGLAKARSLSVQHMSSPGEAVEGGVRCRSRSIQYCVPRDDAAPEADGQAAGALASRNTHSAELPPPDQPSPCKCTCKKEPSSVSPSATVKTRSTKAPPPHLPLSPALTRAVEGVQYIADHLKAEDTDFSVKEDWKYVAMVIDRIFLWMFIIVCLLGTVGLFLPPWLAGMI
UniProt O70174, residues 31-629: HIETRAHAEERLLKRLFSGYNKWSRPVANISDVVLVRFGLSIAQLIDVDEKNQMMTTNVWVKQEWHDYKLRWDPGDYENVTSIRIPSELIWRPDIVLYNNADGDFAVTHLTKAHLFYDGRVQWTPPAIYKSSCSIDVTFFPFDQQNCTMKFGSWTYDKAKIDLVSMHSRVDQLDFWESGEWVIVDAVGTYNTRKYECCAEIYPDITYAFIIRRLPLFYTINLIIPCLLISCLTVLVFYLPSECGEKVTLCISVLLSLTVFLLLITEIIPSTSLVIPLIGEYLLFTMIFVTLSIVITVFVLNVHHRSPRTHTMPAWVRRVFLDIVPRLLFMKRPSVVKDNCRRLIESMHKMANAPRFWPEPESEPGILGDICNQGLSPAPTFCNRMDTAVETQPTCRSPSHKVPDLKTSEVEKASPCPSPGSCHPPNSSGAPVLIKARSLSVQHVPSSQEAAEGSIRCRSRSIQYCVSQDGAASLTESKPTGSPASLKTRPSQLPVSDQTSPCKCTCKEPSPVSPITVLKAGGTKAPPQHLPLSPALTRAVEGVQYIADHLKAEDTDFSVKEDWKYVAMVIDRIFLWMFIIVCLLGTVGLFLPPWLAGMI
UniProt P17787, residues 26-502: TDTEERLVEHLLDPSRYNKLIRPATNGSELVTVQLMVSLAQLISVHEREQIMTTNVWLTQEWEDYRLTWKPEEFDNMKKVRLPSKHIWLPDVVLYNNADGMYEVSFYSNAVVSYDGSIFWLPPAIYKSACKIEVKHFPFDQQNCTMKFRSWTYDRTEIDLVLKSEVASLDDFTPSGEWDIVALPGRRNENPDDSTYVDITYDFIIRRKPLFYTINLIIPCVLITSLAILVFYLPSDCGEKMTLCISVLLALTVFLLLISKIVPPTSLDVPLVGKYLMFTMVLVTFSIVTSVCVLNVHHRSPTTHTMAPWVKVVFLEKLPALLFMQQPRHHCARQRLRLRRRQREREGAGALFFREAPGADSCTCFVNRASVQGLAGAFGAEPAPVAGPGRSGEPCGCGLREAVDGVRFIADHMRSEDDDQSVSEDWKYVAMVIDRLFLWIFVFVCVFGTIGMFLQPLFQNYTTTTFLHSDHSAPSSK
UniProt Q9ERK7: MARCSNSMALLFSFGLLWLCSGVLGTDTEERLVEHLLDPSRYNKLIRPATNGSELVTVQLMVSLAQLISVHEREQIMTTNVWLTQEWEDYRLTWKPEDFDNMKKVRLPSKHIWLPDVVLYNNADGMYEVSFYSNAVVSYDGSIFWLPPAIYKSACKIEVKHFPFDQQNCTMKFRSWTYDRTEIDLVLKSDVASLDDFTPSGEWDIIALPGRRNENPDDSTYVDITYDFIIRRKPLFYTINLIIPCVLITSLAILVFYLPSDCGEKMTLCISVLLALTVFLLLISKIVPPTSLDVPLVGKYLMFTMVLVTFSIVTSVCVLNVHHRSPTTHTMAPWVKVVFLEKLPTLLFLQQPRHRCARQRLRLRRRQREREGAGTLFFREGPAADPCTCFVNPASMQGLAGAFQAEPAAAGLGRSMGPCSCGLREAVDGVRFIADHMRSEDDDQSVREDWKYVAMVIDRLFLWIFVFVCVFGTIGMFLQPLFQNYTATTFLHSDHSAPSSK

Legend:
α-bungarotoxin = α-bungarotoxin (UniProt P60615); experiment: pull-down; only the target purified
[1] = biological target: α7 nicotinic acetylcholine receptor subunit (mouse) (mouse (endogenous in cortex)) (UniProt P49582); experiment: pull-down; α7-containing receptors isolated on α-Bgt beads from 2% Triton X-100 extract of cortex from wild-type mice; co-purified subunits detected by Western blot; washes with 1 M NaCl
[2] = biological target: α7 nicotinic acetylcholine receptor subunit (human) (human (endogenous in temporal cortex)) (UniProt P36544); experiment: pull-down; α7-containing receptors isolated on α-Bgt beads from 2% Triton X-100 extract of human temporal cortex (two biopsies); co-purified subunits detected by Western blot
[3] = biological target: α7 nicotinic acetylcholine receptor subunit (mouse) (mouse (endogenous in cortex)) (UniProt P49582); experiment: condition: only α7 and β2 from separate homogenates (β2-/- and α7-/- mice) mixed 1:1 after homogenisation; pull-down; α-Bgt beads with a 1:1 mixture of cortical homogenates from α7-/- and β2-/- mice (double the total protein); Western blot

Substance	binding (α-bungarotoxin)	binding [1]	other results
α4 nicotinic acetylcholine receptor subunit (human) (from UniProt P43681 27-627)	no binding		
α4 nicotinic acetylcholine receptor subunit (mouse) (from UniProt O70174 31-629)	no binding	no binding	
α7 nicotinic acetylcholine receptor subunit (human) (from UniProt P36544 23-502)	binds		
α7 nicotinic acetylcholine receptor subunit (mouse) (from UniProt P49582 23-502)	binds		
β2 nicotinic acetylcholine receptor subunit (human) (from UniProt P17787 26-502)			binding [2]: binds
β2 nicotinic acetylcholine receptor subunit (mouse) (from UniProt Q9ERK7 26-501)		binds	binding [3]: no binding
